PubChem BioAssay AID1768 (National Center for Advancing Translational Sciences (NCATS), 2009)
Screen size: about 270,000 compounds; about 620 (0.23%) were called active. The shares of active, inactive and inconclusive entries below differ from those in the screen. Calls come from the whole dose curve; as a rule, active = well fitted inhibition curve with a large enough effect in the polarisation, with a control signal flat (not every such curve was filed as active); inconclusive = small, poorly fitted or top-dose-only effect, or effect the other way, or a change in a side signal; inactive = no such curve, though single readings can be large or run the other way; the % refers to the polarisation. A potency beside an inconclusive call is a rough fit, not a confirmed value. “Side channel” marks fits to a control or component signal instead of the main read-out.

biological target: Menin (Homo sapiens) (UniProt O00255); assay: qHTS Assay for Inhibitors Targeting the Menin-MLL Interaction in MLL Related Leukemias: Competition With Texas Red Labeled MLL-derived Mutant Peptide; conditions: fluorescence polarization; series mostly up to 61.6 µM
Potency is the fitted concentration of half-maximal effect; tags give direction and shape of the fitted curve or compound fluorescence and quenching.

UniProt O00255, sequence (O00255 whole entry, looked up): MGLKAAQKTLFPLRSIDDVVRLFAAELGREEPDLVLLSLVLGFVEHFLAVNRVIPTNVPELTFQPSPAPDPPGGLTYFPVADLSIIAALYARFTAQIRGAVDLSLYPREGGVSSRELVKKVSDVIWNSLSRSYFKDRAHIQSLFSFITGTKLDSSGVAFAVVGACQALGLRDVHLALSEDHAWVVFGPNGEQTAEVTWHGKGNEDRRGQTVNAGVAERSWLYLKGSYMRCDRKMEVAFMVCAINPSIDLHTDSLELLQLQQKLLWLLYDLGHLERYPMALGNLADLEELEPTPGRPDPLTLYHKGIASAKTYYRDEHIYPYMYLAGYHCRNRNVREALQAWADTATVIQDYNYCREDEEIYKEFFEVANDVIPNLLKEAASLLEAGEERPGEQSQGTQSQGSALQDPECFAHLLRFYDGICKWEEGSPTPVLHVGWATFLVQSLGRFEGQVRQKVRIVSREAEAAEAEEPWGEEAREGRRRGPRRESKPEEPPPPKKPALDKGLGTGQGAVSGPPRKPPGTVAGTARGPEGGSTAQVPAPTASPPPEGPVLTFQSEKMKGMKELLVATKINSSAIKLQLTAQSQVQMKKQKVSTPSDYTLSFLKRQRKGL

Row | Structure (SMILES) | Potency
1 | O=C(Cn1cnc2cc([N+](=O)[O-])ccc2c1=O)NCCc1ccc(Cl)cc1 | inconclusive: 39.8 µM [quencher, side channel, single point]
2 | CCOC(=O)c1c(-c2ccccc2)oc2ccc(OCC(O)CNCCN(C)C)cc12 (stereo unspecified) | inconclusive: 2.51 µM [inhibitor, partial curve]
3 | CCCC(O)(c1ccc(CC)cc1)C(CN1CCOCC1)c1ccccc1 (stereo unspecified) | inconclusive: 2.51 µM [inhibitor, full curve]
4 | Cc1ccc(C(=O)OCC(=O)N2CCc3ccccc32)cc1 | inconclusive: 39.8 µM [fluorescent, side channel, single point]
5 | COc1ccc(NC(=O)/C=C/c2ccc(Cl)cc2)cc1 | inconclusive: 14.1 µM [quencher, side channel, partial curve]
6 | COc1ccc(/C=C2\SC(=O)N(CCC(=O)Nc3ccc(S(=O)(=O)Nc4nccs4)cc3)C2=O)cc1 | inconclusive: 11.2 µM [quencher, side channel, partial curve]
7 | CSc1nc2ccc(NS(=O)(=O)c3cccc(Cl)c3Cl)cc2s1 | inconclusive: 10 µM [quencher, side channel, partial curve]
8 | O=C(CN1CCN(c2ncc(C(F)(F)F)cc2Cl)CC1)N1CCN(c2ncc(C(F)(F)F)cc2Cl)CC1 | inconclusive: 3.98 µM [fluorescent, side channel, full curve]
9 | COc1ccccc1-c1cc(C2CC2)nc(N)c1C#N | inactive
10 | Cc1cc(Nc2ccc(Cl)cc2)n2nnnc2n1 | inconclusive: 31.6 µM [inhibitor, single point]
11 | O=C(N/N=C/c1cc([N+](=O)[O-])ccc1O)C1CCCCC1 | inactive
12 | O=C(C1=C[C@@H]2[C@H]3C(=O)N(c4ccccc4)C(=O)[C@H]3[C@@H](C(=O)c3ccc(Cl)cc3)N2C=C1)c1ccccc1 | inconclusive: 15.8 µM [quencher, side channel, partial curve]
13 | CC(C)C(=O)Nc1c(C(=O)N2CCN(c3ncccn3)CC2)oc2ccccc12 | inconclusive: 44.7 µM [inhibitor, partial curve]
14 | Cc1cccc(NC(=S)NC(=O)/C=C/c2ccco2)n1 | inconclusive: 28.2 µM [quencher, side channel, single point]
15 | COc1cccc(-c2cc3nc(-c4ccccc4)cc(=O)n3[nH]2)c1 | inconclusive: 35.5 µM [quencher, side channel, single point]
16 | CCC1Sc2ccccc2N(CC(=O)NCCC2=CCCCC2)C1=O (stereo unspecified) | inconclusive: 11.2 µM [fluorescent, side channel, partial curve]
